Data taken from US11020404B2, “Use of CDK9 and BRD4 inhibitors to inhibit inflammation” (THE REGENTS OF THE UNIVERSITY OF CALIFORNIA, priority 2014, dated 2021).

Legend:
[1] = test system: iNOS induction in human primary chondrocytes; assay: iNOS mRNA induction by different inflammatory stimuli in human primary chondrocytes; settings: FIG. 5C
[2] = test system: IL-1β-induced iNOS transcription in primary chondrocytes; assay: Primary human chondrocytes stimulated with IL-1β or TNF-α, qRT-PCR of inflammatory and catabolic genes; design-of-experiment for minimal drug dose; settings: for repression of a panel of pro-inflammatory and catabolic genes: 10 ng/ml IL-1β or TNF-α, 5 hours; for minimal dose in combined treatment to achieve complete repression of IL-1β response: combined Flavopiridol + JQ1, healthy human chondrocytes, 4 donors, DOE; for dosage for single treatment: each drug alone, IL-1β response
[3] = test system: bovine cartilage explants; assay: Single impact injury of bovine cartilage explants, mRNA by quantitative real-time PCR; format: cell-based; settings: first 24 hours after mechanical injury
Source text: Cartilage explants—Bovine calf (˜2 months old, n=40 joints, sex unknown) stifle joints were obtained from a local slaughterhouse (Petaluma, Calif.) within 1 day of slaughtering. 6-8 cylindrical cartilage explants were harvested from each femoral condyle with a 6 mm biopsy punch inserted perpendicular to the weight bearing area of the articular surface. The explants were then trimmed into ˜3 mm thickness (with the articular surface intact and the deep layer cut flat) using a custom jig. The explants were washed with phosphate buffered saline and cultured for 24 hours in high-glucose Dulbecco's Modified Eagle's Medium (DMEM) supplemented with 10% fetal bovine serum (Invitrogen), penicillin (1×10^4 units/ml) and streptomycin (1×10^4 μg/ml) at 37° C., 5% CO2, and 95% relative humidity.
At 2-, 6-, and 24-hours post-injury, the explants were frozen in liquid nitrogen and pulverized with a pestle and mortar while frozen. […] The quantity and quality of the total RNA were determined by a Nanodrop-2000 spectrophometer. […] Individual mRNA expression was determined with quantitative real-time PCR performed in triplicates in a 7900HT system (Applied Biosystem). Results were normalized to the 18s rRNA (catalog no. 4319413E, Applied Biosystem) and calculated as fold-change in mRNA expression relative to control, using the 2^−ΔΔCT method. […]

[4] = test system: iNOS induction in human primary chondrocytes; settings: Yik et al. 2014; cited from earlier work
[5] = test system: synovial hyperplasia / rheumatoid arthritis; settings: cited from earlier work
[6] = test system: chondrocytes in bovine cartilage explants; assay: Chondrocyte viability by Live/Dead stain in cartilage explants; settings: 5 days
[7] = test system: IL-1β-induced genes in primary human chondrocytes; assay: Microarray of IL-1β-induced genes in primary human chondrocytes; settings: Flavopiridol alone

Compound | inflammatory response induced by IL-6 [1] | repression of a panel of pro-inflammatory and catabolic genes [2] | minimal dose in combined treatment to achieve complete repression of IL-1β response [2] [nM] | dosage for single treatment [2] [nM] | adverse side effects on anabolic gene expression [3] | induction of mRNA of other inflammatory cytokines and catabolic genes such as MMPs by the four stimuli [4] | synovial hyperplasia ([5]; mouse models of rheumatoid arthritis) | rheumatoid arthritis ([5]; mouse models, effect reversible on stopping treatment) | cell survival in uninjured explants (live/dead stain) [6] | share of the 873 IL-1β-induced genes not suppressed at all [7] [%] | share of the 873 IL-1β-induced genes suppressed to at least 75% less than maximum induction [7]
Cc1sc2c(c1C)C(c1ccc(Cl)cc1)=N[C@@H](CC(=O)OC(C)(C)C)c1nnc(C)n1-2 [JQ1] | suppress | effectively repressed | 250 | 1200 | – | – | – | – | – | – | –
CN1CC[C@H](c2c(O)cc(O)c3c(=O)cc(-c4ccccc4Cl)oc23)[C@H](O)C1 [Flavopiridol, 2-(2-chlorophenyl)-5,7-dihydroxy-8-[(3S,4R)-3-hydroxy-1-methyl-4-piperidinyl]-4-chromenone] | suppress | effectively repressed | 60 | 250 | no adverse side effects | suppressed | reduced | effectively prevented | did not significantly affect cell survival | ~5 | nearly half
